Data from PubChem BioAssay AID1466 (National Center for Advancing Translational Sciences (NCATS), 2008).
Screen size: about 200,000 compounds; about 10 (0.005%) were called active. The inconclusive results got no clear call from the source; some entries with a clear call stand among them for comparison. The call rests on the fitted dose curve; in most records, active means well fitted inhibition curve with a large enough effect; inconclusive means small, poorly fitted or top-dose-only effect, or effect the other way, or another doubt; inactive means no such curve, though single readings can be large or run the other way. Potencies beside an inconclusive call are fits to weak or partial responses and may not hold up.

Biological target: Lysosomal alpha-glucosidase (Homo sapiens) (UniProt P10253)
Assay: qHTS Assay for Inhibitors of Human alpha-Glucosidase as a Potential Chaperone Treatment of Pompe Disease;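 on activity change, negative = inhibition: plate controls were uninhibited enzyme wells for no effect and no-enzyme background for full effect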
Conditions: purified human GAA, 4-MU-alpha-glucoside fluorescence; activity change, negative = inhibition: at 76.9 µM (top of the series) unless noted
In short: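 Activity normalized between no-enzyme (basal) and enzyme-only wells. Conditions: 4 nM human enzyme, 400 uM fluorogenic substrate, citrate/phosphate pH 5.0 with Tween-20, 20 min room temperature, compounds up to 77 uM.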
Potency means the concentration at half of the fitted maximal effect; tags describe the fitted curve by direction and shape.

Potency, inconclusive:
CC(C)CCn1nnnc1CN1CCN(c2ccc(F)cc2)CC1 50.1 µM [inhibitor, single point], COc1cc2c(cc1NC(=S)Nc1ccccc1C)oc1ccccc12 56.2 µM [inhibitor, partial curve, poor fit], O=C(Nc1ccc(O)c(C(=O)O)c1)c1ccc2c(c1)C(=O)N(CC1CCCO1)C2=O (centres undefined) 50.1 µM [activator, single point], O=C(O)Cn1cc(/C=C/[N+](=O)[O-])c2ccccc21 44.7 µM [inhibitor, partial curve, poor fit], Cc1c(C=O)c2ccccn2c1C(=O)c1cccs1 50.1 µM [inhibitor, single point], O=C(NCc1ccc2c(c1)OCO2)C1CCN(C(=O)Nc2ccc(Cl)cc2)CC1 0.158 µM [inhibitor, full curve, poor fit], CC(=O)Oc1ccc2ccccc2c1C(NC(=O)Cc1ccccc1)c1ccccc1 (centres undefined) 20 µM [inhibitor, single point], O=C(CNC(=O)C1CCCCC1)Nc1ccc(Cl)cc1 56.2 µM [inhibitor, single point], CCN(CC)CC(C(=O)N(CC)CC)P(=O)(c1ccccc1)c1ccccc1 (centres undefined) 2.51 µM [inhibitor, partial curve], COc1ccc(/C=C/C(=O)NC(=S)Nc2ccc(S(=O)(=O)Nc3ccc(OC)nn3)cc2)cc1 31.6 µM [inhibitor, single point], Cc1cc(C)c2c(n1)nn1c(-n3ccnc3)cc(C)nc21 50.1 µM [activator, single point], Cc1c(C(N)=O)sc2ncn(CCOc3ccccc3)c(=O)c12 12.6 µM [inhibitor, single point], COc1ccc(C(=O)Oc2ccc(/C=N/NC(=O)c3ccccc3OC)cc2[N+](=O)[O-])cc1 11.2 µM [inhibitor, single point], O=C1C2C3C=CC(C3)C2C(=O)N1/N=C/c1cn(Cc2ccc(F)cc2)c2ccccc12 (centres undefined) 56.2 µM [inhibitor, single point], COc1cc2c(cc1OC)CN(c1nc(-c3cccnc3)nc3ccccc13)CC2 7.94 µM [inhibitor, full curve], CCN(C(=S)Nc1ccccc1F)C1CCCCC1 12.6 µM [inhibitor, partial curve], Nc1c(C(=O)NCCc2ccccc2)sc2nc(N3CCOCC3)c3c(c12)CCCC3 35.5 µM [activator, partial curve], c1nnc2c3c4c(sc3ncn12)CCC4 20 µM [inhibitor, single point], Cc1cc(C)cc(C(=O)NC2C(=O)N3C(C(=O)O)=C(CSc4nnc(C)s4)CSC23)c1 (centres undefined) 25.1 µM [inhibitor, single point], O=C(CN(c1ccc2c(c1)OCCO2)S(=O)(=O)c1ccccc1)NCc1ccc(Cl)cc1 50.1 µM [inhibitor, single point], CCc1cccc(OCCCCNCCCOC)c1 12.6 µM [inhibitor, single point], NC(=O)CSC1=Nc2ccccc2C2=NC(CCC(=O)NCc3ccc(F)cc3)C(=O)N12 (centres undefined) 35.5 µM [activator, partial curve], CCc1ccc(N2CC(C(=O)Nc3cc(C)ccc3F)CC2=O)cc1 (centres undefined) 56.2 µM [inhibitor, single point], COc1ccccc1NC(=O)c1cc(C)nc2ccccc12 1.12 µM [inhibitor, full curve, poor fit], Cc1nnc(-c2ccccc2)nc1N1CCOCC1 22.4 µM [inhibitor, single point], COc1ccc(N(CC(=O)Nc2ccccc2C(N)=O)S(=O)(=O)c2ccc(C)c([N+](=O)[O-])c2)cc1 35.5 µM [inhibitor, single point], CCCN1C(=O)SC(CC(=O)Nc2ccc(C)cc2)C1=O (centres undefined) 56.2 µM [inhibitor, single point], COc1ccc(C(c2nnnn2Cc2cccs2)N2CCN(c3ccccc3F)CC2)cc1OC (centres undefined) 56.2 µM [inhibitor, partial curve, poor fit], COc1ccc(NC(=O)C2CCCN(S(=O)(=O)c3cccc4cccnc34)C2)cc1 (centres undefined) 50.1 µM [inhibitor, single point], NC(N)=N/N=C/c1cc([N+](=O)[O-])ccc1O 28.2 µM [inhibitor, partial curve], CCN1CCCC1CNC(=O)c1cc2c(-c3ccc(Cl)cc3)nn(C)c2s1 (centres undefined) 56.2 µM [inhibitor, single point], CCN(CC)c1ccc2c(C)c(CN3CCOCC3)c(=O)oc2c1 28.2 µM [activator, single point], COc1ccc(C(=O)Nn2cc3c(c2-c2ccccc2)c(=O)n(C)c(=O)n3C)cc1 28.2 µM [inhibitor, single point], CCOC(=O)CSc1nnc(CNC(=O)c2ccco2)n1-c1ccc(F)cc1 0.355 µM [inhibitor, full curve, poor fit], Cc1cc(C)cc(NC(=O)Cn2ncn3c(cc4ccccc43)c2=O)c1 56.2 µM [inhibitor, single point], COc1ccc(OC)c(/C=N/NC(=O)CCc2n[nH]c(=O)[nH]c2=O)c1 44.7 µM [activator, partial curve], CCN(CC)S(=O)(=O)c1ccc(-c2nnc(SC)o2)cc1 0.708 µM [inhibitor, full curve, poor fit], CC(C)COC(=O)c1cc(-c2ccc(/C=N/n3cnnc3)o2)ccc1Cl 50.1 µM [inhibitor, single point], Cc1ccccc1-c1nc(-c2ccc(NC(=O)c3cccs3)cc2)no1 2.82 µM [inhibitor, single point], COc1ccc(CN(Cc2ccccn2)S(=O)(=O)c2ccc(-n3cnnn3)c(OC)c2)cc1 35.5 µM [inhibitor, single point], CCCNS(=O)(=O)c1ccc(NC(=O)c2ccccn2)cc1 1.41 µM [inhibitor, full curve, poor fit], CCOC(=O)c1c(-c2ccc(F)cc2)cn2ccccc12 35.5 µM [activator, partial curve], COc1ccc(-c2noc(C3CCCN(C(=O)Nc4ccccc4)C3)n2)cc1 (centres undefined) 56.2 µM [activator, partial curve, poor fit], Nc1nnc(SCC(=O)Nc2cc(S(=O)(=O)N3CCOCC3)ccc2Cl)s1 11.2 µM [inhibitor, partial curve], C=CCc1ccc(OCCOc2cccc3cccnc23)c(OC)c1 39.8 µM [inhibitor, single point], CCCC1(CCC)NC(=O)N(CC(=O)c2cc(C)n(-c3ccc4c(c3)OCO4)c2C)C1=O 0.891 µM [inhibitor, full curve]

Activity change, negative = inhibition, inconclusive:
C=CCn1c(C)cc(C(=O)COC(=O)C2CC(=O)N(Cc3ccccc3)C2)c1C (centres undefined) 3.42% [activator], COc1ccc(-c2nc(CN(Cc3cnn(C)c3)C(C)C)c(C)o2)c(OC)c1 16.5% [activator], Cc1c(Cl)c([N+](=O)[O-])nn1CC(=O)Nc1c(C)n(C)n(-c2ccccc2)c1=O 13% [activator], CSC1=N/C(=C\c2ccccc2Cl)C(=O)N1N(C)C -17.4% [inhibitor], CCOC(=O)c1sc(NC(=O)CN(CC(C)C)CC(C)C)c(C(=O)OCC)c1C 16% [activator], COc1cc(S(=O)(=O)NC2CCCCC2C)ccc1-n1cnnn1 (centres undefined) 18.8% [activator], CC(=O)c1c(C)n(-c2ccccc2)c2ccc(OCC(N)=O)cc12 7.09% [activator], CCc1ccccc1NC(=S)N1CCC(NC(=O)c2ccc(OC)cc2)CC1 16.2% [activator], Cc1ccc2c(C)c(C(=O)NCc3ccc(S(N)(=O)=O)cc3)oc2c1C -16.8% [inhibitor], CCc1nnc(NC(=O)CSc2nnnn2-c2cccc(C(C)=O)c2)s1 18.5% [activator], CC(=O)NCCC(=O)N1CCCC(CNC(=O)c2ccc(-c3ccccc3)cc2)C1 (centres undefined) 16.8% [activator], C/C(=C\c1ccccc1)C(=O)N1CCN(c2cccc(C(F)(F)F)c2)CC1 -19.6% [inhibitor], Cc1cccc(-c2nnn(C/C(N)=N/O)n2)c1 13.2% [activator]

Activity change, negative = inhibition, inactive:
O=C(CSC1=NS(=O)(=O)c2ccccc21)Nc1ccccc1 0.314%, O=C1CC(N(O)c2ccccc2)C(=O)N1c1cc(Cl)cc(Cl)c1 (centres undefined) -9.43%, O=C(NNC(=S)NC(=O)c1ccccc1[N+](=O)[O-])c1ccccc1O 4.06%, Oc1ccc(/C=N/Nc2cccc3cccnc23)c(O)c1 -2.13%, CC(C)N1C(=O)CC(Nc2ccc(N3CCOCC3)cc2)C1=O (centres undefined) -6.05%
